Measurements reported in the supplement of paper PMC8728848.
Some of the results follow.

What was measured:
Assay in all cases: glycan array binding signal (z-score within array); higher = stronger binding
Conditions in all cases: glycan notation: IUPAC condensed, linker removed
[1] = target: Fuc(a1-3)[Gal(b1-4)]GlcNAc
Method in brief: (§1)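 The binding signal is a Z-score computed within each array and averaged over linkers. Arrays of the same protein sequence at different concentrations or buffers were also averaged together. Data originate from 3228 arrays in the Consortium for Functional Glycomics database, kept only where the protein sequence was available.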

[2] = target: Fuc(a1-3)[Gal(b1-4)]GlcNAc(b1-4)Gal(b1-4)[Fuc(a1-3)]GlcNAc
Method in brief: as §1

[3] = target: Fuc(a1-3)[Gal(b1-4)]GlcNAc(b1-4)Gal(b1-4)[Fuc(a1-3)]GlcNAc(b1-4)Gal(b1-4)[Fuc(a1-3)]GlcNAc
Method in brief: as §1

[4] = target: Fuc(a1-3)[Gal3S(b1-4)]GlcNAc
Method in brief: as §1

[5] = target: Fuc(a1-3)[GalNAc(b1-4)]GlcNAc
Method in brief: as §1

Fuc(a1-4)GlcNAc = target: Fuc(a1-4)GlcNAc
Method in brief: as §1

Fuc(b1-3)GlcNAc = target: Fuc(b1-3)GlcNAc
Method in brief: as §1

Gal(a1-2)Gal = target: Gal(a1-2)Gal
Method in brief: as §1

Gal(a1-3)Gal = target: Gal(a1-3)Gal
Method in brief: as §1

Gal(a1-3)Gal(b1-3)GlcNAc = target: Gal(a1-3)Gal(b1-3)GlcNAc
Method in brief: as §1

Gal(a1-3)Gal(b1-4)Glc = target: Gal(a1-3)Gal(b1-4)Glc
Method in brief: as §1

Gal(a1-3)Gal(b1-4)GlcNAc = target: Gal(a1-3)Gal(b1-4)GlcNAc
Method in brief: as §1

[6] = target: Gal(a1-3)Gal(b1-4)[Fuc(a1-3)]GlcNAc
Method in brief: as §1

Gal(a1-3)GalNAc = target: Gal(a1-3)GalNAc
Method in brief: as §1

[7] = target: Gal(a1-3)[Gal(a1-4)]Gal(b1-4)GlcNAc
Method in brief: as §1

Gal(a1-4)Gal(b1-4)Glc = target: Gal(a1-4)Gal(b1-4)Glc
Method in brief: as §1

Gal(a1-4)Gal(b1-4)GlcNAc = target: Gal(a1-4)Gal(b1-4)GlcNAc
Method in brief: as §1

Gal(a1-4)GlcNAc = target: Gal(a1-4)GlcNAc
Method in brief: as §1

Gal(a1-6)Glc = target: Gal(a1-6)Glc
Method in brief: as §1

Gal(b1-2)Gal = target: Gal(b1-2)Gal
Method in brief: as §1

Gal(b1-3)Gal = target: Gal(b1-3)Gal
Method in brief: as §1

Gal(b1-3)GalNAc = target: Gal(b1-3)GalNAc
Method in brief: as §1

[8] = target: Gal(b1-3)GalNAc(b1-3)Gal(a1-4)Gal(b1-4)Glc
Method in brief: as §1

[9] = target: Gal(b1-3)GalNAc(b1-4)Gal(b1-4)Glc
Method in brief: as §1

[10] = target: Gal(b1-3)GalNAc(b1-4)[Neu5Ac(a2-3)]Gal(b1-4)Glc
Method in brief: as §1

Gal(b1-3)GlcNAc = target: Gal(b1-3)GlcNAc
Method in brief: as §1

[11] = target: Gal(b1-3)GlcNAc(b1-3)Gal(b1-4)Glc
Method in brief: as §1

[12] = target: Gal(b1-3)GlcNAc(b1-3)Gal(b1-4)GlcNAc
Method in brief: as §1

[13] = target: Gal(b1-3)[Fuc(a1-4)]GlcNAc
Method in brief: as §1

[14] = target: Gal(b1-3)[Fuc(a1-4)]GlcNAc(b1-3)Gal(b1-4)GlcNAc
Method in brief: as §1

[15] = target: Gal(b1-3)[Fuc(a1-4)]GlcNAc(b1-3)Gal(b1-4)[Fuc(a1-3)]GlcNAc
Method in brief: as §1

[16] = target: Gal(b1-3)[GlcNAc(b1-6)]GalNAc
Method in brief: as §1

[17] = target: Gal(b1-3)[Neu5Ac(a2-6)]GalNAc
Method in brief: as §1

[18] = target: Gal(b1-3)[Neu5Ac(a2-6)]GlcNAc(b1-6)Gal(b1-4)Glc
Method in brief: as §1

[19] = target: Gal(b1-3)[Neu5Ac(b2-6)]GalNAc
Method in brief: as §1

[20] = target: Gal(b1-4)GalNAc(a1-3)[Fuc(a1-2)]Gal(b1-4)GlcNAc
Method in brief: as §1

[21] = target: Gal(b1-4)GalNAc(b1-3)[Fuc(a1-2)]Gal(b1-4)GlcNAc
Method in brief: as §1

Gal(b1-4)Glc = target: Gal(b1-4)Glc
Method in brief: as §1

Gal(b1-4)Glc6S = target: Gal(b1-4)Glc6S
Method in brief: as §1

Gal(b1-4)GlcNAc = target: Gal(b1-4)GlcNAc
Method in brief: as §1

[22] = target: Gal(b1-4)GlcNAc(b1-2)Man(a1-3)[Gal(b1-4)GlcNAc(b1-2)Man(a1-6)]Man(b1-4)GlcNAc(b1-4)GlcNAc
Method in brief: as §1

[23] = target: Gal(b1-4)GlcNAc(b1-3)Gal(b1-4)Glc
Method in brief: as §1

[24] = target: Gal(b1-4)GlcNAc(b1-3)Gal(b1-4)GlcNAc
Method in brief: as §1

[25] = target: Gal(b1-4)GlcNAc(b1-3)Gal(b1-4)GlcNAc(b1-3)Gal(b1-4)GlcNAc
Method in brief: as §1

[26] = target: Gal(b1-4)GlcNAc(b1-3)Gal(b1-4)[Fuc(a1-3)]GlcNAc(b1-3)Gal(b1-4)[Fuc(a1-3)]GlcNAc
Method in brief: as §1

B1: AICL (Homo sapiens), Q92478 (protein)
chain: MMTKHKKCFIIVGVLITTNIITLIVKLTRDSQSLCPYDWIGFQNKCYYFSKEEGDWNSSKYNCSTQHADLTIIDNIEEMNFLRRYKCSSDHWIGLKMAKNRTGQWVDGATFTKSFGMRGSEGCAYLSDDGAATARCYTERKWICRKRIH
**Q.** B1 was tested. Which “glycan array binding signal (z-score)” value [1] did it give?
**A.** -0.169

**Q.** And the “glycan array binding signal (z-score)” value [2]?
**A.** 0.531

**Q.** And the “glycan array binding signal (z-score)” value [3]?
**A.** -0.269

**Q.** And the “glycan array binding signal (z-score)” value [4]?
**A.** -0.352

**Q.** And the “glycan array binding signal (z-score)” value [5]?
**A.** -0.23

**Q.** What about the “glycan array binding signal (z-score)” value (Fuc(a1-4)GlcNAc) of the same binder?
**A.** -0.412

**Q.** What about the “glycan array binding signal (z-score)” value (Fuc(b1-3)GlcNAc) of the same binder?
**A.** -0.469

**Q.** And the “glycan array binding signal (z-score)” value (Gal(a1-2)Gal)?
**A.** 0.211

**Q.** What about the “glycan array binding signal (z-score)” value (Gal(a1-3)Gal) of the same binder?
**A.** -0.224

**Q.** And the “glycan array binding signal (z-score)” value (Gal(a1-3)Gal(b1-3)GlcNAc)?
**A.** -0.464

**Q.** What about the “glycan array binding signal (z-score)” value (Gal(a1-3)Gal(b1-4)Glc) of the same binder?
**A.** 0.176

**Q.** And the “glycan array binding signal (z-score)” value (Gal(a1-3)Gal(b1-4)GlcNAc)?
**A.** -0.382

**Q.** What about the “glycan array binding signal (z-score)” value [6] of the same binder?
**A.** -0.431

**Q.** And the “glycan array binding signal (z-score)” value (Gal(a1-3)GalNAc)?
**A.** 0.747

**Q.** And the “glycan array binding signal (z-score)” value [7]?
**A.** -0.447

**Q.** And the “glycan array binding signal (z-score)” value (Gal(a1-4)Gal(b1-4)Glc)?
**A.** 0.014

**Q.** And the “glycan array binding signal (z-score)” value (Gal(a1-4)Gal(b1-4)GlcNAc)?
**A.** -0.258

**Q.** And the “glycan array binding signal (z-score)” value (Gal(a1-4)GlcNAc)?
**A.** -0.349

**Q.** What about the “glycan array binding signal (z-score)” value (Gal(a1-6)Glc) of the same binder?
**A.** 0.384

**Q.** What about the “glycan array binding signal (z-score)” value (Gal(b1-2)Gal) of the same binder?
**A.** -0.391

**Q.** And the “glycan array binding signal (z-score)” value (Gal(b1-3)Gal)?
**A.** -0.314

**Q.** What about the “glycan array binding signal (z-score)” value (Gal(b1-3)GalNAc) of the same binder?
**A.** -0.313

**Q.** And the “glycan array binding signal (z-score)” value [8]?
**A.** -0.112

**Q.** And the “glycan array binding signal (z-score)” value [9]?
**A.** -0.243

**Q.** And the “glycan array binding signal (z-score)” value [10]?
**A.** -0.397

**Q.** And the “glycan array binding signal (z-score)” value (Gal(b1-3)GlcNAc)?
**A.** -0.41

**Q.** And the “glycan array binding signal (z-score)” value [11]?
**A.** -0.388

**Q.** What about the “glycan array binding signal (z-score)” value [12] of the same binder?
**A.** -0.39

**Q.** And the “glycan array binding signal (z-score)” value [13]?
**A.** -0.382

**Q.** And the “glycan array binding signal (z-score)” value [14]?
**A.** -0.356

**Q.** What about the “glycan array binding signal (z-score)” value [15] of the same binder?
**A.** -0.259

**Q.** What about the “glycan array binding signal (z-score)” value [16] of the same binder?
**A.** -0.354

**Q.** What about the “glycan array binding signal (z-score)” value [17] of the same binder?
**A.** -0.085

**Q.** What about the “glycan array binding signal (z-score)” value [18] of the same binder?
**A.** -0.359

**Q.** And the “glycan array binding signal (z-score)” value [19]?
**A.** -0.47

**Q.** And the “glycan array binding signal (z-score)” value [20]?
**A.** -0.399

**Q.** And the “glycan array binding signal (z-score)” value [21]?
**A.** -0.438

**Q.** What about the “glycan array binding signal (z-score)” value (Gal(b1-4)Glc) of the same binder?
**A.** -0.297

**Q.** What about the “glycan array binding signal (z-score)” value (Gal(b1-4)Glc6S) of the same binder?
**A.** -0.236

**Q.** What about the “glycan array binding signal (z-score)” value (Gal(b1-4)GlcNAc) of the same binder?
**A.** -0.506

**Q.** And the “glycan array binding signal (z-score)” value [22]?
**A.** -0.438

**Q.** What about the “glycan array binding signal (z-score)” value [23] of the same binder?
**A.** -0.422

**Q.** What about the “glycan array binding signal (z-score)” value [24] of the same binder?
**A.** -0.439

**Q.** What about the “glycan array binding signal (z-score)” value [25] of the same binder?
**A.** -0.36

**Q.** What about the “glycan array binding signal (z-score)” value [26] of the same binder?
**A.** -0.194
